Test results: the RNAGym collection of RNA variant scans (doi:10.7554/elife.90254)
The source gives no read counts; variants with many changes may rest on few reads.

B1: LINE1-full (parent)
chain: UACGUAGGUGGUUUUCCCCUGAUAGUGCUAAGGGGGCCUGGAAGUUUGGACUGGGCAGAGCUCAACACAGCGUGGCAAAGUGGCUGUGGCUAGACUGCCUCUCUGGAUUCCUCGUCACUCAGCAGGGCAUCUCUGAGAGAAAUGCC

Variants of: B1
Assay: self-cleavage, relative activity (ratio to wild type); higher = more cleavage; in vitro, sequencing; the parent is a self-cleaving ribozyme

Variant | self-cleavage
U81A U119C U143C C146U | 2.66
A50G G89A G114A | 0.04
A22G A42G U130C | 0.56
U39C A43G U52A A57C U108C A142G | 0
G49A U62C U112C | 0.06
C28A U39C U47A U100C | 1.89
A65G G72U U130A | 0
G35A U45C C76U | 0.78
U23A G35A U87C U109A | 0.08
C71U A94U U109C | 0.06
G35A A57G U130C A142G | 0.88
U119A A124G C131G | 1.08
A42G U47C G74A | 0.77
U46C U130C A141U | 1.13
G41A U52A U87A | 0.07
U20C U29C A78U | 1.31
G80A U100C U143A | 1.96
G8A A42G U46A U119C A142G | 1.33
U14A A30U G32A | 0.97
U12A A31G U85C G93A | 0.32
C18A C38U A107G | 1.32

Variant | self-cleavage
U81A U115C C123A | 2.42
U26C A57G A141G | 0.96
G33U U100C A124G | 1.76
C17U A121G A141G | 0.92
G32U C63U U81C A117U | 0.32
A6U A67G U132C A141U | 0.69
A69U A78G A107G C128U | 0.05
C71U U109A C113U A141G A142G | 0.76
U9C A78G A124C G135U | 1.02
U1A C17U U47C C51U | 1.18
A24G A140U A142G | 0.99
U14C U52A U87A | 0.14
A67G U85A A94U A141G | 0.17
A2G A107G A141G | 1.67
U29C U45C U73A G88A U130C | 0.05
U15C C101U U104A | 1.26
C19U A22G U104A U130C A140G | 0
A79G U104C U132C | 0.66
C68U A121G U143A | 0.2
C19U A69U A142G | 0.05
A30G A117U U130A | 0.52

Variant | self-cleavage
A2G U13A U52C A64U A77G | 0.34
U14A A79G U100C | 1.77
G93A U132C A141G | 0
U46C A50G A59G | 0.2
G34U G106U U115C | 1.69
U13C U119C A129G | 0
A78G U96C U134A | 0.06
U62C G74A A78U U87A U96A U112A | 0.01
U15A U20A A59U A65G | 0.14
U9C A77U C98G U104C | 0
U46C A78G A107U A124U | 1.66
A42G A50G U134C | 0.95
A6U A64U A77G | 0.22
U13C U85C U134G | 0.2
A30U A77G U85A U91C | 0
U14C U15A A43G U96A | 0
U47A U119C A124U U130C | 1.96
U9A A24G U132C | 0.47
G36A A65G U132A | 0.02
A65G U119C A140U | 0
G58U A92U A94G U130C A142U | 0.12

Variant | self-cleavage
A107U A136G A141G A142G | 0
U1C U26C U102C A142G | 1.47
U14A G58A A59G U87C A117G | 0
U5C A24G U39C U47A A59G A79U A129U | 0.26
U1C A30G U39G C133A | 0.84
U23C U87C G105A C111A | 0.11
U13C U52A A79G U134C | 0
A50G U130C A142U | 1.17
A2G A69G C99U | 0
A24G A50G U115C | 2.63
A2G U62C U134C | 0.3
U13A U14G A24G A57U U62C A129U | 0
U9C A64C A65G U130C A140G | 0
A50U A65G A67U A140G | 0
A6G U26C A79G | 1.64
U1A U62A U85C U100C | 0
U14C A50G A140U A142G | 0
U1A U20C U73A U85A | 0.21
G7A U12C A79G | 0.86
U85C U108C A121C | 0
U5C U115A U132C A142G | 2.26
